According to patent publication US20160177276A1 (Merck KGaA, published 2016):
One block for each binder: values may come before it.

Assays:
CD47 [1] = target: T1, CD47 (human, UniProt Q08722); assay: flow cytometry on CD47-transfected CHO cells, data not shown
T1 construct: whole, on cells; Human by the cells used (blood of human donors; human Ramos, A549, BT474, Raji, Namalwa cells); also called human CD47
Protocol: (§1) After washing again, cells were fixed with 1% formaldehyde in PBS. Cells were analyzed by flow cytometry (MACSQuant, Miltenyi Biotec, Cologne, Germany).

CD20 = target: T2, CD20 (human, UniProt P11836 1-297); assay: flow cytometry on cells that carry both CD20 and CD47
T2 construct: whole, on cells; The cells carry CD47 as well
T2 sequence (looked up): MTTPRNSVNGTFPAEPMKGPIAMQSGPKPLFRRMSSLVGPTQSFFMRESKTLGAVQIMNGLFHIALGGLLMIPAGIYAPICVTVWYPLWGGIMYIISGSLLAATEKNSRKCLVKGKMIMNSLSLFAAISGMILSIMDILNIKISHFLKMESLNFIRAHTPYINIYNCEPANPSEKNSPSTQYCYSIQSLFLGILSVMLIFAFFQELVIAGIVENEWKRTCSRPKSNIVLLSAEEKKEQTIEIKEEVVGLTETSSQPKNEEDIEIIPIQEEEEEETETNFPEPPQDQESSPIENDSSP

CD47 [2] = target: T1, CD47; assay: flow cytometry on CD47-transfected CHO cells and leukocyte-enriched whole blood
Protocol: as §1, §1

CD47 on mouse A20 cells = target: T3, CD47 on mouse A20 cells (mouse, UniProt Q61735 19-303); assay: flow cytometry on mouse A20 cells that carry both PD-L1 and CD47
T3 construct: whole, on cells; Mouse by the cell line
T3 sequence (looked up): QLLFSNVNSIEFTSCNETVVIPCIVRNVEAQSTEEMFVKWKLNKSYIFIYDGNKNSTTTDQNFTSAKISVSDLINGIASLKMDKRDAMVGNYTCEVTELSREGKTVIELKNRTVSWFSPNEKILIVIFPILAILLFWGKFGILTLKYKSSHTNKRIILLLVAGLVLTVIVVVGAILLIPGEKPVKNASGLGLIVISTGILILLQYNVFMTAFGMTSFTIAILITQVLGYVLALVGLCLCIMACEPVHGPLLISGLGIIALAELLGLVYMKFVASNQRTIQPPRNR
Protocol: After washing with PBS+1% FBS, cells were incubated with FITC F(ab′)2 goat Anti-Human IgG, Fcγ (Jackson ImmunoResearch, West Grove, Pa.), diluted 1:200 in PBS+1% FBS for 60 min on ice. After washing again, cells were fixed with 1% formaldehyde in PBS. Cells were analyzed by flow cytometry (MACSQuant, Miltenyi Biotec, Cologne, Germany).

binding result (CD47 [1]): binds
B1: Fc-SIRPαV2CC (Fc fusion)
chain: [letters of human IgG1 Fc with C220S (EU numbers) omitted]GGGGSGGGGSGGGGSGGGGSEE[letters of about 120 residues omitted]KPSAPVVSGPAARATPQHTVSFTCESHGFSPRDITLKWFKNGNELSDFQTNVDPVGESVSYSIHSTAKVVLTREDVHSQVICEVAHVTLQGDPLRGTANLSETIRVPPTLEVTQQPVRAENQVNVTCQVRKFYPQRLQLTWLENGNVSRTETASTVTENKDGTYNWMSWLLVNVSAHRDDVKLTCQVEHDGQPAVSKSHDLKVSAHPKEQGSNTAAENTGSNERNIY
notes: Fc fusion whose SIRPα ECD has the IgV domain of allele V2 joined to the IgC domains of allele V1

binding result (CD20): binds
binding result (CD47 [2]): binds
B2: anti-CD20-huIgG1-SIRPαV2 (other)
heavy: QVQLQQPGAELVKPGASVKMSCKASGYTFTSYNMHWVKQTPGRGLEWIGAIYPGNGDTSYNQKFKGKATLTADKSSSTAYMQLSSLTSEDSAVYYCARSTYYGGDWYFNVWGAGTTVTVSAASTKGPSVFPLAPSSKSTSGGTAALGCLVKDYFPEPVTVSWNSGALTSGVHTFPAVLQSSGLYSLSSVVTVPSSSLGTQTYICNVNHKPSNTKVDKRV[letters of human IgG1 Fc omitted]GGGGSGGGGSGGGGSGGGGSEE[letters of about 120 residues omitted]
light: QIVLSQSPAILSASPGEKVTMTCRASSSVSYIHWFQQKPGSSPKPWIYATSNLASGVPVRFSGSGSGTSYSLTISRVEAEDAATYYCQQWTSNPPTFGGGTKLEIKRTVAAPSVFIFPPSDEQLKSGTASVVCLLNNFYPREAKVQWKVDNALQSGNSQESVTEQDSKDSTYSLSSTLTLSKADYEKHKVYACEVTHQGLSSPVTKSFNRGEC
notes: Antibody-SIRPα fusion (2B8/rituximab, IgV domain of SIRPαV2 on the heavy chain C-terminus by a (G4S)4 linker); tetramer

binding result (CD47 on mouse A20 cells): binds
B3: anti-PD-L1-huIgG1-muSIRPα (other)
heavy: EVQLLESGGGLVQPGGSLRLSCAASGFTFSSYIMMWVRQAPGKGLEWVSSIYPSGGITFYADTVKGRFTISRDNSKNTLYLQMNSLRAEDTAVYYCARIKLGTVTTVDYWGQGTLVTVSS[letters of human IgG1 constant region omitted]GGGGSGGGGSGGGGSGGGGSKELKVTQPEKSVSVAAGDSTVLNCTLTSLLPVGPIKWYRGVGQSRLLIYSFTGEHFPRVTNVSDATKRNNMDFSIRISNVTPEDAGTYYCVKFQKGPSEPDTEIQSGGGTEVYVL
light: QSALTQPASVSGSPGQSITISCTGTSSDVGGYNYVSWYQQHPGKAPKLMIYDVSNRPSGVSNRFSGSKSGNTASLTISGLQAEDEADYYCSSYTSSSTRVFGTGTKVTVLGQPKANPTVTLFPPSSEELQANKATLVCLISDFYPGAVTVAWKADGSPVKAGVETTKPSKQSNNKYAASSYLSLTPEQWKSHRSYSCQVTHEGSTVEKTVAPTECS
notes: Antibody-SIRPα fusion based on avelumab, with the IgV domain of murine SIRPα
